{"source": "paper PMC6814707", "about": "(Communications Biology, 2019)", "binders": {"B1": {"name": "recombinant human PD-1 protein ([…]) (domain or fragment)", "chain": "not shown", "notes": "PD-1 used in SPR and the ELISAs"}}, "key": {"PD-L2-hFc-Biotin": {"molecular_target": "T1, PD-L2-hFc-Biotin (UniProt Q9BQ51-1 20-220, biotin)", "T1 construct": "NP_079515.2, residues 20-220; Detected through its biotin with HRP-streptavidin; also called CD273; B7-DC", "T1 sequence (looked up)": "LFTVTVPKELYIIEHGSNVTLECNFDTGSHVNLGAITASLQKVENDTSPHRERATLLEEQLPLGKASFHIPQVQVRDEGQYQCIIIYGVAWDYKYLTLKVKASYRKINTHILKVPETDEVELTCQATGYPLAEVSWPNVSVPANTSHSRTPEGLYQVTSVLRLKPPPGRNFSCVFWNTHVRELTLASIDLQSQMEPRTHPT", "test": "ELISA; blocking: plates coated with PD-1 (21-167); antibody, then 2 ug/mL PD-L2-hFc-Biotin, 37 °C 60 min, detected with HRP-streptavidin", "conditions": "both partners purified"}, "PD-L1-mFc": {"molecular_target": "T2, PD-L1-mFc (UniProt Q9NZQ7-1 in part)", "T2 construct": "also called CD274; B7-H1", "test": "ELISA; blocking: plates coated with 0.5 ug/mL PD-1 (21-167); antibody from 3 ug/mL, 1.5-fold dilutions, 37 °C 120 min; then 1 ug/mL PD-L1-mFc, detected with HRP-anti-mouse Fc", "conditions": "both partners purified"}}}
{"binder": "B1", "values": [{"measurement": "binding result", "setting": "PD-L2-hFc-Biotin", "result": "binds"}, {"measurement": "binding result", "setting": "PD-L1-mFc", "result": "binds"}]}
